Data taken from paper PMC8733628.
Results are given in words; binding and its absence hold for the method and conditions named. Some entries that bind do so weakly or less than the wild type. Where a sequence is shown, tags or fusion partners need not be part of it.

T1: Alb3-Cub: mature Alb3 fused to the C-terminal half of ubiquitin (split-ubiquitin bait) (Arabidopsis thaliana) (UniProt Q8LBP4)
T1 sequence: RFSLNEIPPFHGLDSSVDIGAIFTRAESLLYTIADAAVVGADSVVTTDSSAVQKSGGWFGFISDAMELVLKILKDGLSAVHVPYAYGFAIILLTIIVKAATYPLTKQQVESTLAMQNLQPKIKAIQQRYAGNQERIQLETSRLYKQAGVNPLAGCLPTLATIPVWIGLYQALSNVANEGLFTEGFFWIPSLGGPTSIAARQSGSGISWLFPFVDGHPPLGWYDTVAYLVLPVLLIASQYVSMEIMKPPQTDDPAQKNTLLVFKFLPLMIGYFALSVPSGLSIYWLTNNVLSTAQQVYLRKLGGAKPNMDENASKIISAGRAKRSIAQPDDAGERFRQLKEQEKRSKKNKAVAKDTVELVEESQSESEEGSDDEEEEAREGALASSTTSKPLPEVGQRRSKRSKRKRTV


Target: T1, Alb3-Cub: mature Alb3 fused to the C-terminal half of ubiquitin (split-ubiquitin bait) (Arabidopsis thaliana)
Test: two-hybrid; yeast split-ubiquitin assay; Alb3 constructs fused to Cub, uL4 constructs fused to NubG; growth on selective medium (-LTH)

| binding | Binder |
| --- | --- |
| binds | NubG-uL4cΔN231: A. thaliana uL4c aa 232-282 fused to NubG (domain or fragment, UniProt O50061 232-282) TPRTLNLFDILNADKLVLTPAAVEFLNARYGVDAVEEEDDDEDETEGSEEA |
| no binding | NubG-uL4cΔC20: A. thaliana uL4c aa 50-262 fused to NubG (domain or fragment, UniProt O50061 50-262) QLATLPILSFEGEKVGETYLDLKAAPEDTARAVVHRAIVTDLNNKRRGTASTLTRGEVRGGGIKPYSQKKTGHARRGSQRTPLRPGGGVVFGPRPKDWSIKINRKEKKLAISTALSSAASAEGGAIVVEEFGEKFEKPKTKDFLAAMQRWGLDPKEKAMFLMIDVDENVAKSSRNIGTLRMLTPRTLNLFDILNADKLVLTPAAVEFLNARYG |

The remaining lines, values behind:

| Binder | binding |
| --- | --- |
| NubG-uL4 of Synechocystis sp. PCC6803, full length (aa 1-210) (protein, UniProt P73319 1-210) MVDCIVKNWQGEEVGNASLTLRVAKEENAAHIVHRALVRQQNNARQGNASAKTRAEVRGGGRKPWKQKGTGRARAGSIRSPLWRGGGVIFGPKPRDYSQKMNRKERRLALRTAIASRADNMVVVEAFGDQFSQPKTKELATALTRWGAKPEKRVLLILDEIPENVFLSGRNIPYLKILRADNLNIYDVLVADTIVATATALEKIQEVYGE | no binding |
| NubG-uL4c: A. thaliana mature uL4c (aa 50-282) fused to NubG (split-ubiquitin prey) (protein, UniProt O50061 50-282) QLATLPILSFEGEKVGETYLDLKAAPEDTARAVVHRAIVTDLNNKRRGTASTLTRGEVRGGGIKPYSQKKTGHARRGSQRTPLRPGGGVVFGPRPKDWSIKINRKEKKLAISTALSSAASAEGGAIVVEEFGEKFEKPKTKDFLAAMQRWGLDPKEKAMFLMIDVDENVAKSSRNIGTLRMLTPRTLNLFDILNADKLVLTPAAVEFLNARYGVDAVEEEDDDEDETEGSEEA | binds |
| NubG-uL4+C20 (Synechocystis): full-length Synechocystis sp. PCC6803 uL4 fused to A. thaliana uL4c aa 263-282 (protein, UniProt P73319 1-210; O50061 263-282) MVDCIVKNWQGEEVGNASLTLRVAKEENAAHIVHRALVRQQNNARQGNASAKTRAEVRGGGRKPWKQKGTGRARAGSIRSPLWRGGGVIFGPKPRDYSQKMNRKERRLALRTAIASRADNMVVVEAFGDQFSQPKTKELATALTRWGAKPEKRVLLILDEIPENVFLSGRNIPYLKILRADNLNIYDVLVADTIVATATALEKIQEVYGEVDAVEEEDDDEDETEGSEEA | binds |
